Displacement data for 70 compounds are collected here from PubChem BioAssay AID1240 (Sanford-Burnham Center for Chemical Genomics, 2008).

In all, about 50,000 compounds went through this assay and about 800 (1.6%) showed an effect of 50% or more. The list shows a part of the results.

In this assay the target is Bcl-2-like protein 10 (Homo sapiens) (UniProt Q9HD36). The assay can be described thus: Phenotype converters, Bcl-B/TR3 peptide binding displacement, primary biochemical FP (AID 1240).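 Also: 0% = Bcl-B with tracer peptide and DMSO and 100% = tracer peptide lacking Bcl-B.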 The conditions noted are these: GST-Bcl-B / FITC-TR3 peptide fluorescence polarization; stronger effect = higher value; compound at 3.75 mg/L. (In general: Polarisation of emitted light reports the rotation of a fluorescent probe.)
Chain of UniProt Q9HD36 (Q9HD36 whole entry, looked up): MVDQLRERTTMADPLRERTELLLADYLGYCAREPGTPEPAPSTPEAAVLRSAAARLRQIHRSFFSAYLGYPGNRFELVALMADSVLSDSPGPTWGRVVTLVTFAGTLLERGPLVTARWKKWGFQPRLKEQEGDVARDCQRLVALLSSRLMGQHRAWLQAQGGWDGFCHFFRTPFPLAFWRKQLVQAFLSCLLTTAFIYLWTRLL
With `COc1ccc(-n2c(C)cc(C)nc2=O)cc1`, the displacement was determined as 4.7%.

Regarding `O=C(Nc1cc(C(F)(F)F)ccc1Cl)C1COc2ccccc2O1` (stereo not given), the displacement was determined as 5.1%. The same measure for `C=CCOc1c(Br)cc(/C=C2/C(=O)NC(=O)N(c3ccccc3F)C2=O)cc1OCC`: -3%. The same measure for `CC1(C)C=C(/C=C/c2ccccc2)NC(=S)N1`: 5.1%; for `CN(C)c1ccc(NC(=O)c2ccc(F)cc2)cc1`: 1.8%. Take `CCOC(=S)N/C(=N/S(=O)(=O)c1ccc(C)cc1)c1ccccc1`: the displacement was 13.7%. The same measure for `O=C(Nc1ccc2oc(-c3ccc(Cl)cc3Cl)nc2c1)c1ccc2c(c1)OCCO2`: 2.1%; for `O=C1CC(Cc2ccccc2)C(=O)N1c1ccc2ccccc2n1` (stereo not given): 4.3%.

On to `CCCCOC(=O)c1ccc(NC(=O)c2ccc(OC)c([N+](=O)[O-])c2)cc1`, for which the displacement is -1.2%. For the compound `Cc1ccccc1SCCNC(=O)Nc1cc(F)c(F)cc1Cl`, the displacement is -8.1%. For `COc1cc(Cl)cc(/C=C2\SC(=S)N(C)C2=O)c1O`, the displacement is -29.1%.

As for `CC(C)c1c(O)nc(SCCC(=O)O)[nH]c1=O`, the displacement is -11.9%. Under `CCOC(=O)c1cc2cc([N+](=O)[O-])ccc2oc1=O` stands -5.9%; under `CC(C)c1ccc(OCC(=O)Nc2ccc(F)cc2)cc1`, 5.6%.

Consider `C=CCC1(O)C(C)C(c2cc(OC)ccc2OC)NC(c2cc(OC)ccc2OC)C1C` (stereo not given), for which the displacement was found to be 13.9%. Consider `Nc1cc[n+](CC(=O)c2ccccc2)cc1`, for which the displacement was 8.3%. Under `COC(=O)/C(=C\C(=O)c1ccc(Cl)cc1)Nc1ccccc1` stands -46.6%; under `COc1ccc(CN2CCN(CCCc3ccccc3)CC2)c(OC)c1`, -11.1%; under `O=C(O)c1ccccc1-c1ccccc1C(=O)Nc1ccc(-c2nc3ccccc3o2)cc1`, -0.6%. As for `Cc1ccccc1-n1c(N)c(C#N)c2nc3ccccc3nc21`, the displacement is 16.4%.

For the compound `O=C(NOC(=O)c1ccccc1Br)c1ccc(Cl)cc1`, the displacement was -2.2%.

With `COc1ccc(S(=O)(=O)N2CCN(Cc3cc(OC)c(O)c(OC)c3)CC2)cc1`, the displacement is -5.7%. Consider `COc1ccc(N=C2NC(=O)/C(=C/c3ccc(N(C)C)cc3)S2)cc1`, for which the displacement was found to be 84.9%.

With `CCN1C(=O)/C(=C\c2cc(Cl)ccc2OCc2ccc(F)cc2)SC1=S`, the displacement was 5.6%. The same measure for `COc1ccccc1/C=N/Nc1cc(N2CCCC2)nc(N2CCCC2)n1`: 33.3%; for `CCn1c(C)nc2c(Cl)c(O)ccc21`: -4.1%. Under `Cc1ccc(-n2ncnc2-c2ccccc2Cl)cc1Cl` stands -0.3%.

`O=C1C=CC(=O)N1c1ccc(OC(F)F)cc1`: the displacement was determined as 8%.

For `O=C1c2ccccc2/C(=N/N=C/C=C/c2ccco2)C1C(=O)C(c1ccccc1)c1ccccc1` (stereo not given), the displacement is -47.1%. `CC(=O)c1cc2c(cc1[N+](=O)[O-])OCCO2`: the displacement was 13.7%.

For the compound `O=C1C(=O)N(Cc2cccnc2)C(c2ccc(Cl)cc2)/C1=C(\O)c1ccccc1` (stereo not given), the displacement was -11.7%. As to `O=C(O)CCC(=O)Nc1ccc(Cc2ccc(NC(=O)CCC(=O)O)cc2)cc1`, the displacement amounted to 10.8%. Under `CCCOc1ccc(CC(CC(=O)O)(C(=O)O)C(=O)O)cc1` stands -9.6%; under `O=C(CN1CCOCC1)C12CC3CCC(CC(C3)C1)C2`, 8.2%. Under `CC1(C)CC2CC(C)(CN2S(=O)(=O)c2ccc(C(=O)Nc3ccccc3N3CCOCC3)cc2)C1` (stereo not given) stands 10.9%; under `Cc1ccc(OCC(=O)n2cnnc2N)c(Br)c1`, 5.4%. The same measure for `CC1=C(C(=O)Nc2ccc(Cl)cc2)C(c2cccs2)NC(=S)N1` (stereo not given): -11.4%; for `O=C(/C=C/c1ccc(Cl)cc1)Nc1ccc(O)c(-c2nc3ccccc3o2)c1`: 3.4%. For the compound `O=S1(=O)CCC(NC(=S)N=Nc2c(O)[nH]c3ccccc23)C1` (stereo not given), the displacement is -3.7%.

With `COc1ccc(C2Nc3ccccc3NC3=C2C(=O)CC(c2ccccc2)C3)cc1Br` (stereo not given), the displacement is 0.6%. Consider `O=C(O)CC(NS(=O)(=O)c1ccc(F)cc1)c1ccccc1` (stereo not given), for which the displacement was 7.6%. The same measure for `CCOC(=O)C1=C(O)/C(=C/c2ccccc2O)N=C1C`: -2%; for `CC1=C(C)CC(C(=O)Nc2ccc(C(N)=O)cc2)C(C(=O)O)C1` (stereo not given): 9%; for `COC(=O)C1=C(N)OC2=C(C(=O)CC(C)(C)C2)C1c1cccc(C)c1` (stereo not given): 4.7%.

Turning to `O=C(Cc1nnc(NC(=O)c2ccco2)s1)NCc1ccccc1`, the displacement is -13.8%.

As for `O=C(Nc1ccc(Cl)cc1)N1CCN(c2cccc(Cl)c2)CC1`, the displacement was -8.7%.

Regarding `CCOc1ccc2nc(NC(=O)c3cccc(Br)c3)sc2c1`, the displacement is 10.1%. Under `COc1ccc(OC)c(/C=C/C(=O)Nc2cccc(Br)c2)c1` stands 12.3%; under `CCNC(=O)C(=O)Nc1ccccc1OCC`, -0.7%; under `CCNC(=O)C(=O)Nc1ccc(OCC)cc1`, 7.5%. The same measure for `Cc1ccc(S(=O)(=O)c2ccc(C)c(S(=O)(=O)NC3CCCCC3)c2)cc1S(=O)(=O)NC1CCCCC1`: -4.7%. Turning to `Nc1ccc(-c2ccc(S(=O)(=O)c3ccc(-c4ccc(N)cc4)cc3)cc2)cc1`, the displacement stood at 9.4%. Under `O=C(CSC1=NCCS1)n1c2c(c3ccccc31)CCCC2` stands 31.5%; under `CCOc1ccc(NC(=O)c2ccc([N+](=O)[O-])o2)cc1`, -4.8%. `CCC1CCc2c(sc(NC(=O)C3CCCC3)c2C(N)=O)C1` (stereo not given): the displacement was -1.5%.

As to `O=C(c1ccccc1O)N1N=C(c2ccc(Br)cc2)CC1(O)C(F)(F)F` (stereo not given), the displacement turned out to be 3%. Under `O=C(N/N=C/c1cccc([N+](=O)[O-])c1)C(=O)N1CCCCCC1` stands -3.3%; under `O=C1CC(c2ccccc2)CC2=C1C(c1cccc(Br)c1)Nc1ccccc1N2` (stereo not given), -5.8%. With `Cc1c(OCC(=O)c2ccccc2)ccc2c1oc(=O)c1ccccc12`, the displacement is 5.4%. The same measure for `CCOCCOC(=O)c1ccc(NC(=O)c2ccc([N+](=O)[O-])cc2)cc1`: -3.3%. Under `COc1ccc(-c2cc3c(ccc4ccccc43)oc2=O)cc1` stands -4.2%. Under `CC(C)(C)c1cc(C(=O)N/N=C/c2ccc(O)cc2O)n(-c2ccccc2)n1` stands 5.9%; under `CCOc1ccc(N2C(=O)/C(=C/c3cccc(Br)c3)SC2=S)cc1`, -5.5%; under `Cc1c(N=Cc2sc3ccccc3c2O)c(=O)n(-c2ccccc2)n1C`, -14.2%. In the case of `O=C1c2cccnc2C(=O)N1c1ccc(Oc2ccc(N3C(=O)c4cccnc4C3=O)cc2)cc1`, the displacement was determined as 15.7%. The same measure for `CCOC(=O)Cc1nnc(Nc2ccc(Nc3nnc(CC(=O)OCC)c4ccccc34)cc2)c2ccccc12`: 1.3%; for `O=C(c1ccccc1O)N1N=C(c2cccnc2)CC1(O)C(F)(F)F` (stereo not given): -1.6%. Under `COc1ccc(-c2nnc(-c3ccc(C)cc3)o2)cc1` stands -10.4%; under `O=C(O)C1CCCCC1C(=O)NCCC(c1ccccc1)c1ccccc1` (stereo not given), -10.4%. As for `COC(=O)/C(=C/c1ccccc1)[N+](=O)[O-]`, the displacement is -0.3%.
